From publication PMC4336329 (PLoS ONE, 2015)
In all, about 310,000 compounds went through this assay and about 14,000 (4.5%) showed an effect of 50% or more. Effects have a minus sign here. This is one part of the list.

target: human ether-à-go-go-related gene (hERG) potassium channel (human, UniProt Q12809); assay: primary screen, population patch clamp on CHO cells stably expressing hERG
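Further: peak tail current of the secondary pulse compared with the same well before compound.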

Chain of human ether-à-go-go-related gene (hERG) potassium channel (Q12809 whole entry, looked up): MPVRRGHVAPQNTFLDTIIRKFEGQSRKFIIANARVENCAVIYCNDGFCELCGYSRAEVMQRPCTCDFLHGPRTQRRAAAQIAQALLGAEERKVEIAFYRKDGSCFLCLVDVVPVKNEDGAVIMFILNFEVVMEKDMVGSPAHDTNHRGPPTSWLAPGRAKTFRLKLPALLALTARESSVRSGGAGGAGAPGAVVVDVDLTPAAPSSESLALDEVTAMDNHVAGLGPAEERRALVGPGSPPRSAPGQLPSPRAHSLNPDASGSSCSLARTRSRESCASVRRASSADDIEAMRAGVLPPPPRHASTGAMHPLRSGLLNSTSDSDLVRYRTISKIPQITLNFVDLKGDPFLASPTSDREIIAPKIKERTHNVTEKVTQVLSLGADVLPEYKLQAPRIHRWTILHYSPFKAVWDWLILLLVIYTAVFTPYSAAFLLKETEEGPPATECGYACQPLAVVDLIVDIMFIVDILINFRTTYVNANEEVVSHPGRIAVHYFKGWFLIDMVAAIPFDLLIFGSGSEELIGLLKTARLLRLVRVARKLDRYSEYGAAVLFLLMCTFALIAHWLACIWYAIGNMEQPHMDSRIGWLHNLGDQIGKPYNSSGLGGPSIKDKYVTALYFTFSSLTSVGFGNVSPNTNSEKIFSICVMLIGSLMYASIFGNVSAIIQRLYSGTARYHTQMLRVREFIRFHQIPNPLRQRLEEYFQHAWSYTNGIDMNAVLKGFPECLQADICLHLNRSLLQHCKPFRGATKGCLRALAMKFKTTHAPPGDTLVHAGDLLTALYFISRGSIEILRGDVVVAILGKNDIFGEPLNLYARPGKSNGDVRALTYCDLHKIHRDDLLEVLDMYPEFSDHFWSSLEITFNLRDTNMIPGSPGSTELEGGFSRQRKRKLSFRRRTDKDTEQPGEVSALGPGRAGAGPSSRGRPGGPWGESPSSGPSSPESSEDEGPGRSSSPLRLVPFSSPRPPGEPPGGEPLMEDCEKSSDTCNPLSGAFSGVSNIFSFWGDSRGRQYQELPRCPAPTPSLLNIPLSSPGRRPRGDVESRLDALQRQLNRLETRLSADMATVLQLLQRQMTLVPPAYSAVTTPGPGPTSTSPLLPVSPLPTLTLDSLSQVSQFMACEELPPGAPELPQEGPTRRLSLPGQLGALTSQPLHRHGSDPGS

SMILES	hERG current change (%, negative = inhibition) at 10uM [%]
COc1ccc(Nc2nnc(-c3ccncc3)s2)cc1Cl	21
COC(=O)Cn1cnc2c(nnn2-c2cccc(OC)c2)c1=O	11.4
CN1CCN(c2ccccc2NC(=O)Cn2ncc3c([nH]c4ccccc43)c2=O)CC1	-38.8
COCCOc1cnn(-c2cc(Oc3ccc(C)cc3)ncn2)c(=O)c1Cl	-5.86
Cc1nonc1OCCNc1ccc([N+](=O)[O-])cc1	-40.7
CN(CC(=O)Nc1ccc(N2CCOCC2)cc1)C(=O)CSc1ccc(Br)cc1	13.3
CCCNc1c(N)c(=O)oc2ccccc12	-13.6
Nc1nnc(SCC(=O)OCC(=O)c2ccccc2)s1	15.4
CCOC(=O)c1ccc(NC(=O)c2ccc(C)c(S(=O)(=O)N3CCOCC3)c2)cc1	-33.4
CCN(CC)CCNC(=O)c1ccc(NC(=O)c2ccc(F)cc2)cc1	-43.6
Brc1cc2c(cc1-c1nc3ccccc3s1)OCO2	24.4
Cc1ccc(S(=O)(=O)NCC2CCCO2)cc1 (stereo not shown)	7.63
C1COCCO1.Cc1cc(C)c2nc(Nc3nc(-c4ccccc4)cc(=O)[nH]3)nc(C)c2c1	4.27
COc1ccc(CCC(=O)Nc2cccc(Cl)c2)cc1	-1.25
Cc1cc(NC(=O)CCC(=O)N(c2ccccc2)C(C(=O)NC2CCCC2)c2ccccc2F)no1 (stereo not shown)	-7.04
Cl.O=C(OCCN1CCOCC1)c1cccc(F)c1	10.8
CCCCNC(=O)N1CCN(C(=O)C2CCCO2)CC1 (stereo not shown)	9.68
C=CCNC(=O)N1c2ccccc2Sc2ccccc21	-18.8
COc1ccc(OC)c(CN2CCC(C(=O)N3CCOCC3)CC2)c1.O=C(O)C(=O)O	19.9
CCCCN1C(=O)C(CC(=O)NCC)SC1=Nc1ccccc1 (stereo not shown)	-2.34
Cn1cc(C(=O)c2ccc(Cl)cc2Cl)cc1C(=O)NN	17.4
COc1ccc(NC(=O)c2ccco2)c([N+](=O)[O-])c1	-11.4
C=CCNC(=S)N1CCC(C(=O)c2ccc3c(c2)OCCO3)CC1	-8.17
COC(=O)[C@@H]1CC[C@H](C)[C@@H](c2ccc(C)cc2)N1C(=O)c1ccc(/C=N/O[C@@H](C)c2cn([C@H](CO)Cc3ccccc3)nn2)cc1	5.85
CCCOc1ccc(/C=C/C(=O)Nc2ccc([N+](=O)[O-])cc2C)cc1OC	-0.0933
O=C(NCc1ccccc1)/C(=C\c1ccc([N+](=O)[O-])cc1)NC(=O)c1ccco1	-60.9
COc1ccc2[nH]c(=S)cc(C)c2c1	21.2
Clc1ccc(-c2nc(NCCN3CCOCC3)c3ccccc3n2)cc1	-15.6

SMILES	hERG current change (%, negative = inhibition) at 10uM [%]
Cc1ccc(S(=O)(=O)Oc2ccccc2/C=N/NC(=O)c2c(Cl)cnn2C)cc1	-7.58
COc1ccccc1C(=O)N1CCN(C2CCN(Cc3ccccc3)CC2)CC1	-23.2
COc1ccc(-c2csc(NC(=O)c3ccc(S(=O)(=O)N4CCc5ccccc5C4)cc3)n2)c(OC)c1	23
CSc1ncc(/C=C2/C(=O)NC(=O)N(c3ccc(C)cc3)C2=O)cn1	4.71
O=C(c1ccc(Cl)cc1)c1ccc(OCC(O)CN2CCOCC2)cc1 (stereo not shown)	-19.7
O=C(Nc1nnc(CCN2CCCCC2)s1)c1ccccc1Cl	13.3
COc1ccc(N2CCN(CC(=O)N3CCC(C)CC3)CC2)cc1	-5.05
COc1cccc(Cl)c1NC(=O)N1CCN(c2ccnc3cc(Cl)ccc23)CC1	-44.1
Cc1cc(C)c(Cn2cnc(-c3ccc([N+](=O)[O-])cc3)c2)c(C)c1	0.488
S=C1NCCOCCOCCNC(=S)N2CCOCCOCCN1CCOCCOCC2	5.22
COc1ccc2c(C)c(Cc3ccccc3)c(=O)oc2c1OC	7.31
CCc1ccc(OCCOCCN2CCN(C)CC2)cc1.O=C(O)C(=O)O	4.8
CC(C)OCCCNC(=O)C(NS(=O)(=O)c1ccc2c(c1)c(=O)n(C)c(=O)n2C)c1ccccc1 (stereo not shown)	24.7
CCOc1cccc(C2C(C#N)=C(N)Oc3cc(C)[nH]c(=O)c32)c1OCC (stereo not shown)	-1.21
Cc1ccc(-c2csc(NC(=O)N3CCOCC3)n2)cc1	-14.3
COc1ccc(C(=O)OCC(=O)Nc2cc(C)on2)c(OC)c1OC	15.9
CSCCC1NC2(C(=O)Nc3ccc(Cl)cc32)[C@@H]2C(=O)N(C3CCCC3)C(=O)[C@H]12 (stereo partly shown)	-8.3
O=C(NC1CCCN(Cc2ccc(Cl)cc2)C1)c1ccoc1 (stereo not shown)	-50.1
CCOC(=O)N1CCN(c2nnc(-c3ccccc3)c3ccccc23)CC1	-22
Cc1cccc(-n2ncc3c(Nc4c(C)n(C)n(-c5ccccc5)c4=O)ncnc32)c1	-4.79
Cc1cccc(C)c1OCc1cc(C(=O)N(C)Cc2nc3ccccc3[nH]2)no1	-70.6
O=C(CSc1nc2ccccc2c2nc3ccccc3n12)NCc1ccco1	-8.55
CC(=O)c1ccc(Sc2ccccc2)cc1	2.63
CCOC(=O)c1cc(C(=O)c2cccs2)n2ccc(C(C)=O)cc12	13.9
O=C(Nc1ccccc1C(=O)N1CCCC1)c1ccccc1	4.09
CC(=O)OCC(=O)[C@@]1(O)CC[C@H]2[C@@H]3CCC4=CC(=O)CC[C@]4(C)[C@H]3[C@@H](O)C[C@@]21C	-2.73
COc1cc(Nc2ccc(S(=O)(=O)N3CCN(C)CC3)cc2[N+](=O)[O-])cc(OC)c1	-28.6
